{"source": "PubChem BioAssay AID1346428", "about": "(National Center for Advancing Translational Sciences (NCATS), 2018)", "note": "“And” between values parts separate entries of the source, which are not always exact repeats. Equal values may be shown once. The campaign covered roughly 48,000 compounds. About 1,200 (2.5%) were called active. Inconclusive results (about 2%) are left out.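 The calls were made as follows: active = activation of at least 60% and not above a set upper limit (about 1 call in 100 departs from these limits); inconclusive = activation of 40% to 60%, or above that upper limit; inactive = activation under 40%.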 This is one part of the list."}
{"target": "Probable G-protein coupled receptor 32 (Homo sapiens) (UniProt O75388)", "sequence (O75388 whole entry, looked up)": "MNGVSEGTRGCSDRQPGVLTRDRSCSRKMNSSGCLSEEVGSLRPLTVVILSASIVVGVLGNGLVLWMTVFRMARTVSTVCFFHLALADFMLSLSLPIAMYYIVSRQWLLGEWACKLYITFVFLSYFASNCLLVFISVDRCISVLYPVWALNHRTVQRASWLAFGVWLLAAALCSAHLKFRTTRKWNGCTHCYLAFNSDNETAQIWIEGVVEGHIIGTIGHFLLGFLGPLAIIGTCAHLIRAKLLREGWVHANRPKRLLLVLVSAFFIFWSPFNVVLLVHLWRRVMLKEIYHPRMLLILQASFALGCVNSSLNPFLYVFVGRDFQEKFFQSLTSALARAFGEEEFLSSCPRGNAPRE", "test": "qHTS for Agonists of Human Resolvin D1 Receptor DRV1; also: 0% is about no effect", "details": "CHO-K1 GPR32 beta-arrestin PathHunter luminescence, 90 min; at 76.9 µM; active compounds read high; zero percent set by DMSO-only wells", "outline": "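Step 1: seed CHO-K1 GPR32 beta-arrestin cells, 2,500/well, overnight at 37 °C. Step 2: add compounds, 90 min at 37 °C. Step 3: detection reagent, 1 h ambient, then luminescence.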"}
{"smiles": "Cc1nc(N2CCOCC2)c2c(C(=O)N(C)c3ccccc3)c(C)oc2n1", "activation": "inactive: -6%"}
{"smiles": "CC(C)Cc1nn2c(=O)cc(COC(=O)c3cccc(NS(C)(=O)=O)c3)nc2s1", "activation": "inactive: -10.5%"}
{"smiles": "O=C(CCCCCn1c(=O)[nH]c2ccccc2c1=O)N1CCN(c2ccc(Cl)cc2)CC1", "activation": "inactive: -11.8%"}
{"smiles": "O=C(CSc1nc2c([nH]c3ccccc32)c(=O)n1-c1cccc(Cl)c1)NCc1ccccc1", "activation": "inactive: -3.54%"}
{"smiles": "COc1cc2c(cc1OC)C(COc1cc(C)cc(C)c1)N(C(=O)c1ccc(S(=O)(=O)N3CCCC3)cc1)CC2", "note": "(configuration not stated)", "activation": "inactive: -8.85%"}
{"smiles": "COC(=O)c1ccc(CNC(=O)c2nc(Cn3nc(C)c(Br)c3C)no2)cc1", "activation": "inactive: 9.83%"}
{"smiles": "CCc1nc2ccc(C(=O)N3CCN(c4cccc(OC)c4)CC3)cc2nc1CC", "activation": "inactive: -26.4%"}
{"smiles": "CCc1nnc(NC(=O)CSc2nc3c([nH]c4ccccc43)c(=O)n2-c2ccc(C)cc2)s1", "activation": "inactive: -17.4%"}
{"smiles": "O=C(COc1ccccc1)Nc1sc2c(c1C(=O)Nc1ccccc1)CCCCC2", "activation": "inactive: 1.83%"}
{"smiles": "CCOC(=O)C1CCCN(C(=O)Cn2ncc3c4ccccc4n(Cc4ccc(F)cc4)c3c2=O)C1", "note": "(configuration not stated)", "activation": "inactive: -22.3%"}
{"smiles": "Cc1ccc(C)c(-c2ccc(=O)n(Cc3ccc(F)cc3Cl)n2)c1", "activation": "inactive: -29.4%"}
{"smiles": "CCOC(=O)c1ccc(NC(=O)CCn2c(=O)oc3ccccc32)cc1", "activation": "inactive: 43.6%"}
{"smiles": "CC(=O)SCC(CC(=O)c1ccc(C)cc1)C(=O)O", "note": "(configuration not stated)", "activation": "inactive: -70.6%"}
{"smiles": "CCOC(=O)CNC(=O)CC(c1cc(OC)c(OC)c(OC)c1)N1Cc2ccccc2C1=O", "note": "(configuration not stated)", "activation": "inactive: 5.26%"}
{"smiles": "CN(Cc1ccccc1)C(=O)Cn1c(=O)c2cccn2c2ccc(F)cc21", "activation": "inactive: -14.7%"}
{"smiles": "Cc1ccc2[nH]c(CSc3nnc(NC(=O)COc4ccccc4Cl)s3)cc(=O)c2c1", "activation": "inactive: 13.8%"}
{"smiles": "Cc1ccc(CNC(=O)c2sc3ncnc(N(C)C4CCCCC4)c3c2C)cc1", "activation": "inactive: -6.62%"}
{"smiles": "CCc1ccc(NC(=O)C2CCCN(S(=O)(=O)c3cccc4cccnc34)C2)cc1", "note": "(configuration not stated)", "activation": "inactive: -21.5%"}
{"smiles": "Cc1ccccc1NC(=O)C1CCN(S(=O)(=O)c2ccccc2)CC1", "activation": "inactive: 11.7%"}
{"smiles": "O=S(=O)(NCC(c1ccco1)N1CCOCC1)c1ccc(Cl)cc1", "note": "(configuration not stated)", "activation": "inactive: 1.21%"}
{"smiles": "Cc1ccc(S(=O)(=O)n2nc(-c3ccccc3)nc2NCc2ccccc2Cl)cc1", "activation": "inactive: -8.72%"}
{"smiles": "Cc1cccc(N2C(=O)C(CC(=O)Nc3ccc(F)cc3)N(C3CCCC3)C2=O)c1", "note": "(configuration not stated)", "activation": "inactive: -18.7%"}
{"smiles": "Cc1ccc(-c2cc(C(=O)N3CCN(S(=O)(=O)c4ccc(Br)s4)CC3)[nH]n2)cc1C", "activation": "inactive: -16.1%"}
{"smiles": "Cc1oc2ccc(O)c(CN3CCN(C)CC3)c2c1C(=O)Nc1ccc(C(C)C)cc1", "activation": "inactive: -7.29%"}
{"smiles": "C#C[C@]1(O)CC[C@H]2[C@@H]3CCC4=Cc5oncc5C[C@]4(C)[C@H]3CC[C@@]21C", "activation": "inactive: 33.3%"}
{"smiles": "Cc1ccc(C)c(NC(=O)Cn2c(=O)n(Cc3nc(C)no3)c(=O)c3cc4c(cc32)OCO4)c1", "activation": "inactive: -4.48%"}
{"smiles": "COc1ccc(CNc2nc(-c3ccco3)nn2S(=O)(=O)c2ccc3ccccc3c2)cc1OC", "activation": "inactive: -0.342%"}
{"smiles": "Cc1cc(C)n2nc(NCc3ccccc3Cl)nc2n1", "activation": "inactive: -1.65%"}
{"smiles": "CCc1ccc(NC(=O)Cn2c(=O)n(Cc3ccc4c(c3)OCO4)c(=O)c3oc4ccccc4c32)cc1", "activation": "inactive: -16.5%"}
{"smiles": "Cc1cc2oc(C(=O)NCCc3ccc(S(N)(=O)=O)cc3)cc(=O)c2cc1C", "activation": "inactive: -3.55%"}
{"smiles": "Cc1ccc(-c2noc(CN(C3CCCCC3)S(=O)(=O)c3ccc(F)cc3)n2)cc1", "activation": "inactive: -23.6%"}
{"smiles": "CC(=O)Nc1ccc(NC(=O)CSc2cn(CC(=O)N(C(C)C)C(C)C)c3ccccc23)cc1", "activation": "inactive: -16.7%"}
{"smiles": "COC(=O)c1cc2occc2n1Cc1nc(-c2ccccc2C)oc1C", "activation": "inactive: -24.6%"}
{"smiles": "CCC(=O)N1CCc2cc(S(=O)(=O)NC(Cc3ccccc3)C(=O)NCc3ccc(C)cc3)ccc21", "note": "(configuration not stated)", "activation": "inactive: -14.4%"}
{"smiles": "COc1ccc(OCCn2cc(C(=O)c3ccco3)c3ccccc32)cc1", "activation": "inactive: -3.96%"}
{"smiles": "CCOc1ccccc1CN1C(=O)c2ccccc2C1C(=O)NC1CCCCCC1", "note": "(configuration not stated)", "activation": "inactive: -12.1%"}
{"smiles": "COc1cc(C(=O)NCc2nnnn2-c2ccc(C)c(C)c2)cc(OC)c1OC", "activation": "inactive: -5.28%"}
{"smiles": "CCN1CCN(C(=O)c2ccc3c(c2)N(Cc2c(F)cccc2Cl)C(=O)c2ccccc2S3)CC1", "activation": "inactive: -17.4%"}
{"smiles": "Cc1ccccc1COC(=O)c1ccc(-c2nnn(Cc3ccccc3F)n2)cc1", "activation": "inactive: -8.13%"}
{"smiles": "CC(C)c1ccc(NC(=O)CSC2=Nc3ccccc3C3=NC(CCC(=O)NCc4ccc(F)cc4)C(=O)N23)cc1", "note": "(configuration not stated)", "activation": "inactive: 18.4%"}
{"smiles": "COc1ccc(-c2nc(C)c(CCNC(=O)c3ccco3)s2)cc1", "activation": "inactive: 37.8%"}
{"smiles": "CCC(C)Sc1nc2c([nH]c3ccccc32)c(=O)n1C", "note": "(configuration not stated)", "activation": "inactive: -17.1%"}
{"smiles": "CC(=O)N1c2ccc(S(=O)(=O)N3CCN(c4cc(Cl)ccc4C)CC3)cc2CC1C", "note": "(configuration not stated)", "activation": "inactive: 7.3%"}
{"smiles": "O=c1c(-c2cc(-c3ccc(F)cc3)nc3c2COc2ccc(Cl)cc2-3)coc2ccc(F)cc12", "activation": "inactive: -3.89%"}
{"smiles": "c1ccc(CSc2nnc(C3CCNCC3)o2)cc1", "activation": "inactive: -11.4%"}
{"smiles": "CCOc1ccc(C(=O)N2CCC(c3nc(-c4ccc(S(=O)(=O)N5CCCC5)cc4)no3)CC2)cc1", "activation": "inactive: -7.8%"}
{"smiles": "COC(=O)c1ccc(NC(=O)CCn2cccn2)cc1", "activation": "inactive: -1.69%"}
{"smiles": "Cc1ccc(C(C)C)c(OCC(=O)Nc2cccc(-c3nc4ncccc4o3)c2)c1", "activation": "inactive: -2.06%"}
{"smiles": "CCOc1ccc(Cc2nccc3cc(OCC)c(OCC)cc23)cc1OCC", "activation": "active: 88.3%"}
{"smiles": "O=c1[nH]c2ccc(NCc3ccc(-c4ccccc4F)o3)cc2[nH]1", "activation": "inactive: -1.33%"}
{"smiles": "COc1cccc(Oc2nc3c(c(=O)n(Cc4ccccc4Cl)c(=O)n3C)n2C)c1", "activation": "inactive: -6.49%"}
{"smiles": "CCOc1ccc(-c2cc3c(=O)n(Cc4nc(-c5ccc(OC)cc5OC)oc4C)ccn3n2)cc1Cl", "activation": "inactive: -0.931%"}
{"smiles": "COc1ccc(CNC(=O)c2ccc3c(c2)N(Cc2ccccc2)C(=O)c2ccccc2S3=O)cc1", "note": "(configuration not stated)", "activation": "inactive: -0.45%"}
{"smiles": "CCc1ccccc1OCCSc1nc(-c2cccs2)nc2cc(=O)[nH]n12", "activation": "inactive: 13.1%"}
{"smiles": "COc1ccccc1NC(=O)c1nnn(-c2ccc(F)cc2)c1C", "activation": "inactive: -4.52%"}
{"smiles": "Cc1cc(F)ccc1NC(=O)C(C(C)C)N1Cc2ccccc2C1=O", "note": "(configuration not stated)", "activation": "inactive: -16.2%"}
{"smiles": "CC(=O)Nc1ccc(S(=O)(=O)NC2=NCN(C(C)C)CN2)cc1", "activation": "inactive: -5.53%"}
{"smiles": "COc1ccc(C(=O)N2CC(=O)Nc3ccc(C)cc3C2c2ccc(F)cc2)c(OC)c1", "note": "(configuration not stated)", "activation": "inactive: -9.35%"}
{"smiles": "O=c1c(-c2cc(-c3ccc(Cl)cc3)nc3c2COc2ccccc2-3)coc2ccccc12", "activation": "inactive: -3.91%"}
{"smiles": "CN(CC(=O)NCc1ccccc1Cl)S(=O)(=O)c1ccc2c(c1)c(=O)n(C)c(=O)n2C", "activation": "inactive: -3.26%"}
{"smiles": "Cc1sc2ncn(CC(=O)N3CCN(c4ccccc4F)CC3)c(=O)c2c1S(=O)(=O)N1CCN(c2ncccn2)CC1", "activation": "inactive: -4.36%"}
{"smiles": "Cc1ccc(Cl)cc1N1CCN(C(=O)Cc2c(C(=O)O)c(C)cn2C)CC1", "activation": "inactive: -6.2%"}
{"smiles": "CCC(=O)N1CCc2cc(Br)cc(S(=O)(=O)CCC(=O)NCCc3ccc(C)cc3)c21", "activation": "inactive: -17.4%"}
{"smiles": "COc1ccc(Nc2c(-c3ccco3)nc3cccc(C)n23)cc1", "activation": "inactive: -16.6%"}
{"smiles": "O=C(Nc1ccccc1C(F)(F)F)Nc1c[nH]c(=O)[nH]c1=O", "activation": "inactive: -6.79%"}
{"smiles": "COc1cc(OC)c(OC)cc1CN1CCc2nc(N3CCN(c4ccccc4F)CC3)ncc2C1", "activation": "inactive: 0.238%"}
{"smiles": "Cc1ccc2c(C)c(C(=O)N3CCC(c4nc5ccccc5s4)CC3)oc2c1C", "activation": "inactive: 38.2%"}
{"smiles": "CCN(CC)CC(=O)Nc1c(C)cccc1C(=O)OC", "activation": "inactive: -12%"}
{"smiles": "Cc1ccc(OCC(=O)N(Cc2ccc(Cl)cc2)CC2CCCO2)cc1C", "note": "(configuration not stated)", "activation": "inactive: -0.688%"}
{"smiles": "Cc1cc(N2CCN(c3cccc(C(F)(F)F)c3)CC2)n2nc(-c3ccccc3C)nc2n1", "activation": "inactive: -16.9%"}
{"smiles": "CCCOc1ccc(C2C(=O)N(C3CCCCCC3)CC(=O)N2Cc2ccc(OC)cc2)cc1OC", "note": "(configuration not stated)", "activation": "inactive: -34.1%"}
{"smiles": "CCN(CC)S(=O)(=O)c1ccc2c(c1)N(CC(=O)NCc1ccc(F)cc1)C(=O)CO2", "activation": "inactive: -15.5%"}
{"smiles": "CCC(C)NC(=O)CSc1nc2c(sc3ccccc32)c(=O)n1CCc1ccccc1", "note": "(configuration not stated)", "activation": "inactive: -9.35%"}
{"smiles": "O=S(=O)(c1cccc(C(F)(F)F)c1)N1CCC(Oc2ccc(-n3cnnn3)cc2)CC1", "activation": "inactive: -3.66%"}
{"smiles": "Cc1ccc2oc(=O)c3cnn(CC(=O)N4CCN(c5cccc(C(F)(F)F)c5)CC4)c3c2c1", "activation": "inactive: 1.77%"}
{"smiles": "COc1cccc(NC(=O)Cn2c(=O)n(Cc3ccccc3)c(=O)c3c2c2cc(C)ccc2n3C)c1", "activation": "inactive: -25.4%"}
{"smiles": "Cc1cc(C)c2oc(-c3cc(NC(=O)Cc4ccccc4)ccc3Cl)nc2c1", "activation": "inactive: 49.4%"}
{"smiles": "COc1ccc(NC(=O)C2=C(C)Nc3c(C(=O)Nc4ccc(C)cc4)cnn3C2c2cc(OC)ccc2OC)cc1", "note": "(configuration not stated)", "activation": "inactive: -16%"}
{"smiles": "CN(C)c1ccc(C2CC(c3c(O)n(C4CCCCC4)c(=O)[nH]c3=O)=Nc3ccccc3S2)cc1", "note": "(configuration not stated)", "activation": "inactive: -3.29%"}
{"smiles": "CCCN1CCc2nc(SCC(=O)Nc3ccc(C)c(Cl)c3)[nH]c(=O)c2C1", "activation": "inactive: -6.24%"}
{"smiles": "O=C(Nc1ccc([N+](=O)[O-])cc1Cl)c1cc(Cl)ccc1O", "activation": "inactive: 11.4% and inactive: 6.98%"}
{"smiles": "Cc1ccc2nc(NC(=O)CSc3nccn3Cc3ccccc3)sc2c1", "activation": "inactive: -7.08%"}
